# Measured values: the supplement of paper PMC4466236
# Over roughly 33,000 sequences, “E-score (dimensionless, -0.5 to 0.5)” has its median near -0.058; the highest 2% begin near 0.35. The list shows a part of the results.
# System: MvaT
# Assay: PBM 8-mer E-score (mean of HK and ME arrays) (E-score (dimensionless, -0.5 to 0.5)); higher = stronger relative binding preference; most listed sequences are background and not binding sites
# Method in brief: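 Full-length P. aeruginosa MvaT carrying an N-terminal glutathione S-transferase tag was tested by protein binding microarray following a previously described protocol. Two universal double-stranded 60-mer arrays, ME and HK, were used, each with a constant 25-mer primer region and a variable 35-mer region covering all 8-mers. The rank-based E-score is the mean of the two arrays, parsed with a custom script. Its range runs from -0.5 to 0.5 for each 8-mer.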
row,Sequence,PBM 8-mer E-score
1,GATACGTA,0.038
2,CCATGCCA,-0.134
3,AGTGAAAG,0.0564
4,CAAGGTCA,-0.148
5,ATTCTCGC,-0.0889
6,AAGTAATC,0.186
7,ATCTTGGC,-0.136
8,GAACAGTC,-0.0493
9,AGAAAGAG,0.00847
10,CAGGATAG,-0.173
11,AGGTGCCC,-0.338
12,ATGAACAT,0.121
13,CAAACTAG,0.076
14,CCCGTTTC,0.0551
15,AGCGCCAG,-0.311
16,CTGAATGC,-0.0524
17,ATCCATTG,0.0602
18,GGCATGGA,-0.132
19,AGCACCCT,-0.0351
20,GTTATGTA,0.165
21,ACTCAGGC,-0.167
22,CCTGTCAA,-0.0939
23,ATCCCGTG,-0.196
24,AGGAGCTG,-0.244
25,AAGGGCGA,-0.2

row,Sequence,PBM 8-mer E-score
1,TCCAGGGA,-0.208
2,CACACTCC,0.0189
3,ACAGGGCG,-0.185
4,CGGGAGAC,-0.225
5,GCTCGGGA,-0.249
6,AACATATC,0.286
7,ACGCTGAG,-0.15
8,ACTCACCA,0.0727
9,TAATGGAA,0.132
10,CGAATCAC,-0.0955
11,AAAATACC,0.265
12,AAGACCCC,-0.282
13,AATCAACC,-0.0344
14,AGAAGTGC,-0.0659
15,AGCAAGCT,-0.206
16,GTGTTCTA,0.0799
17,ACGGCGTA,-0.0699
18,ATTTGAGA,0.124
19,AAGGAACC,-0.128
20,AAAAGTAT,0.253
21,CTAAGAGC,-0.0147
22,AACCTCGA,-0.0439
23,CTAAATTC,0.115
24,CGGTTCAC,-0.0321
25,TCCGCACA,-0.0291

row,Sequence,PBM 8-mer E-score
1,CGTGGCGA,-0.235
2,ATAAAAAA,0.387
3,GGGTACTA,-0.173
4,AACGTTAG,0.212
5,CACTCCTA,-0.149
6,ATGAGGTA,-0.0736
7,GACTAAGA,0.11
8,AAGACGTA,0.0119
9,AAGCGGAT,0.00854
10,ATCAGTTA,0.2
11,CTTTTCTA,0.155
12,AGGTGGAT,-0.182
13,ACGATGAT,0.0286
14,CGATCCAG,-0.184
15,GTTCGGCA,-0.007
16,CTTCTAAA,0.14
17,TAGACTGA,-0.0853
18,AGCGCGTG,-0.0178
19,GCGGAGAC,-0.176
20,GCCTAAAC,0.00351
21,ATGGCCGA,-0.243
22,GGCGGCAA,-0.13
23,TCGGGTAA,-0.0772
24,CGGCCTGC,-0.296
25,AGTAGTGC,-0.00221

row,Sequence,PBM 8-mer E-score
1,GCGAAGAA,0.0778
2,GTGTCCTA,-0.0256
3,CGGAAGCC,-0.245
4,AGTGGCGA,0.0365
5,GCAACATA,0.203
6,GTGTCTGA,-0.0547
7,TGACACCA,-0.113
8,ATTCCACG,0.0399
9,AACTTGGA,0.104
10,AAGCCGAC,-0.171
11,AGGCCCAC,-0.331
12,CGTTCAGC,-0.132
13,GAATACGC,0.106
14,ACCGTCAA,-0.181
15,CCACCTCC,-0.334
16,ACTTCCGA,0.15
17,AGGGCGAC,-0.211
18,AACCGCGA,-0.0855
19,CGTCATAG,-0.102
20,GAACATAA,0.256
21,TCACCGCA,-0.105
22,CCAGCTGG,-0.285
23,GGGATGAC,-0.201
24,AGTCAGTG,0.0469
25,AGGAAACC,-0.216

row,Sequence,PBM 8-mer E-score
1,ACACGGGG,-0.104
2,GACGGAAA,0.0719
3,CTTGCCCA,-0.191
4,CCGTAAAA,0.0693
5,GGGTAAAA,0.0716
6,AAATTTCG,0.265
7,AGCAGCCT,-0.257
8,CTCTTACC,-0.0132
9,TCGTCTCA,-0.132
10,GCATTCGA,-0.0992
11,CCCCCGCG,-0.135
12,CAGCAAAA,0.0343
13,CTCCTCTA,-0.13
14,CACCAACG,-0.152
15,AAAGCTAC,-0.172
16,CAGTAAAG,0.0486
17,GGACGACA,-0.16
18,CGCAGAAA,0.0151
19,GGTAGTGA,-0.163
20,AACGTTTC,-0.0596
21,AACTTAAA,0.352
22,ATACTACA,0.303
23,CACCAGCG,-0.298
24,ATTGGCCC,-0.0825
25,CCGCGGAC,-0.199

row,Sequence,PBM 8-mer E-score
1,AACACTGT,0.102
2,AATGAGAG,-0.0199
3,CAGAAACG,-0.154
4,GCGTCACC,-0.198
5,CTGAAATA,0.201
6,AACCTTCC,-0.109
7,ATCGAAAA,0.0682
8,CGGGCGCA,-0.18
9,GATGAAAC,-0.0763
10,AAAGTTTA,0.353
11,TAATTACA,0.384
12,AAACATGC,0.175
13,AGTAACGC,0.0313
14,ATTAGCTG,0.199
15,AAGGCCTG,-0.127
16,AGCGGGGC,-0.329
17,AGCGAATG,0.052
18,ACCATACG,-0.0493
19,GGTTTACA,0.114
20,ATCCAAAA,0.1
21,GCTTCAGA,-0.254
22,CCATAAGA,-0.0202
23,CTCATGAG,-0.317
24,GAACTAGC,0.0495
25,CATTAAAG,0.272

row,Sequence,PBM 8-mer E-score
1,CGCCGGCG,-0.347
2,CGCTAGAC,-0.224
3,CTTAAAAC,0.175
4,AATCGGGT,0.0817
5,ACAACACC,0.202
6,GAAGTACC,0.00631
7,GTCTCGCA,-0.0935
8,GGCCCCCC,-0.31
9,GAAATAGA,0.158
10,CAGTCGTA,-0.199
11,GTTCGCAA,0.00892
12,AATATCAG,0.273
13,ACTATAGT,0.328
14,CTGCGGGC,-0.319
15,CTGCGGCC,-0.174
16,ACATAGGC,0.0268
17,CCGATGTA,-0.0165
18,CTTCTACC,-0.0655
19,ATAGCCAC,-0.107
20,TATAGAAA,0.205
21,AAAGTACC,0.164
22,AGACCGTC,-0.239
